The campaign covered roughly 44,000 compounds. About 340 (0.77%) were called active. Inconclusive results (about 5%) are left out. Calls come from the whole dose curve; as a rule, active = well fitted inhibition curve with a large enough effect; inconclusive = small, poorly fitted or top-dose-only effect; inactive = flat fitted curve, though single readings scatter. The list shows a part of the results.
Test: Acumen qHTS Assay for Inhibitors of the mTORC1 Signaling Pathway in MEF (Tsc2-/-, p53-/-) Cells: Sytravon;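 note: plate controls were DMSO for no effect and rapamycin for full effect; nearly all actives have a fitted effect of over 50% in size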
Conditions: phospho-rpS6 immunofluorescence/PI, 24 h; series mostly up to 38.3 µM; activity change, negative = inhibition: at the top concentration
Summary of the method: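 Tsc2-/-, p53-/- MEFs (empty-vector stable line) in DMEM + 10% FBS were treated with compounds 24 h at 37 degree Celsius, fixed, and immunostained for phospho-rpS6 (Alexa-488) with propidium iodide counterstain. Laser-scanning cytometry gave % positive cells, normalized against 7.5 nM rapamycin and DMSO.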

| SMILES | activity change, negative = inhibition |
| --- | --- |
| O=C(Cn1nc(Cc2cccnc2)c2ccccc2c1=O)Nc1ccc(F)c(Cl)c1 | inactive: -2.13% |
| CCC(C(=O)Nc1cc(C(F)(F)F)ccc1Cl)n1nc(C)c2sc3ccccc3c2c1=O (stereo not given) | inactive: -1.2% |
| COc1ccccc1CNC(=O)Cn1nc(C)n2cccc2c1=O | inactive: -2.12% |
| O=C(Cn1cnc2onc(-c3ccc(F)cc3)c2c1=O)N1CCN(c2ccc(F)cc2)CC1 | inactive: -0.371% |
| CCc1cccc(NC(=O)CSc2ncc3c(n2)-c2cc(Cl)ccc2N(C)S3(=O)=O)c1 | inactive: 2.78% |
| COc1ccccc1CNC(=O)CCn1c(=O)c2ccccc2n(CC(=O)Nc2cc(Cl)ccc2C)c1=O | inactive: -24.3% |
| O=c1cc(COc2ccccc2Cl)nc2scc(-c3ccccc3)n12 | inactive: 1.86% |
| Cc1ccc(C2NC(=O)c3n[nH]c(-c4cccs4)c32)cc1 (stereo not given) | inactive: 2.46% |
| Cc1ccc(Cl)cc1N1CCN(C(=O)Cn2nc(C)c3sc4ccccc4c3c2=O)CC1 | inactive: -0.654% |
| CCC(C)NC(=O)CCSc1nc(-c2ccc3c(c2)OCO3)cc(C(F)(F)F)n1 (stereo not given) | inactive: -6.9% |
| COc1ccc(NC(=O)CCS(=O)(=O)c2nc(-c3ccc4c(c3)OCO4)cc(C(F)(F)F)n2)cc1OC | inactive: -0.0245% |
| O=C(Nc1cccc(C(=O)OCc2cc(=O)n3c4c(sc3n2)CCCC4)c1)c1cccc(F)c1 | inactive: 0% |
| Cc1ccc(NC(=O)CSc2nc3ccc(NC(=O)c4ccco4)cc3s2)cc1 | inactive: 0% |
| COc1ccc(C2CC(=O)c3cc(-c4nc(-c5cccc([N+](=O)[O-])c5)cs4)c(=O)n(-c4cccc(C)c4)c3C2)cc1 (stereo not given) | inactive: 0.464% |
| COC(=O)c1c(NC(=O)Cc2coc3cc(C)cc(C)c23)sc2c1CCC2 | inactive: -2.16% |
| COc1cc(C(=O)NCc2ccc3c(c2)CCN3C(=O)c2ccc(Cl)cc2)cc(OC)c1OC | inactive: 0.181% |
| Cc1ccc(NC(=O)CSc2nc(=O)n(Cc3ccccn3)c3c2CCC3)cc1F | inactive: 0.327% |
| COCCNC(=O)c1c(NC(=O)c2cc(=O)c3cc(C)cc(C)c3o2)sc2c1CCCC2 | inactive: 2.15% |
| O=C(Nc1ccccc1Cl)N1CCC2(CC1)Oc1ccccc1C(=O)N2Cc1ccc(F)cc1 | inactive: 1.21% |
| CCc1ccc(NC(=O)c2cnc3c(-c4ccccc4)c(C)nn3c2C)cc1 | inactive: -0.0154% |
| CC(=O)c1ccc(NC(=O)c2ccc(-c3nc(CSc4ccc(C)cc4)c(C)o3)cc2)cc1 | inactive: -2.66% |
| COc1cccc(Cn2c(C)c(CNCc3cccc(C)c3)c(C(=O)O)c2C)c1 | inactive: -1.81% |
| Cc1cccc(NC(=O)CSc2nc(-c3cccs3)nc3cc(=O)[nH]n23)c1 | inactive: -7.77% |
| O=C(CSc1nc2ccccc2nc1Cc1ccccc1)N1CCc2ccccc21 | inactive: 7.02% |
| Cc1cccc(-c2nc3c4ccccc4nc(N4CCN(c5cccc(Cl)c5)CC4)n3n2)c1 | inactive: 1.34% |
